Where “and” joins values, the source holds several entries; their conditions need not be identical. Equal values may be shown once. Inconclusive means that the source gave no clear call. Such entries were picked first, then a sample of the others. For some of these results: Potencies of inconclusive entries are doubtful fits and often do not repeat. For some of these results: “Side channel” marks fits to a control or component signal instead of the main read-out. Calls of active or inactive are those of the source. Unless noted, calls follow the shape of the dose curve; as a rule, active = well fitted curve in either direction with a large enough effect (not every such curve was filed as active); inconclusive = small, poorly fitted or top-dose-only effect, or another doubt; inactive = flat fitted curve, though single readings scatter.
Legend:
[1] = AP1 Signaling Pathway (AID 357); settings: ME-180 AP-1-bla reporter, EGF-induced, beta-lactamase ratio, 5 h;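 also: ME-180 reporter cells stimulated with EGF at its EC50 level; top concentration of the series differs between compounds; % is scaled to controls: 0 for no effect and ±100 for the full control effect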
In short: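 Beta-lactamase reporter under AP-1 response element, ME-180 background. Stimulus: EC50 EGF. Compound exposure 5 h, 37 °C. Detection: CCF4, 2.5 h RT, 460/530 nm. Values: AC50 from titration.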

[2] = NFAT Signaling Pathway (AID 444); settings: Jurkat NFAT-bla M1, carbachol, beta-lactamase ratio, 5 h; at 7.69 µM (top of the series) unless noted;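 also: carbachol stimulus at about its EC50 of 1 µM final; % is scaled to controls: 0 for no effect and ±100 for the full control effect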
In short: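 Jurkat cells carrying an NFAT-driven β-lactamase reporter and co-transfected muscarinic M1 receptor were treated with compound plus carbachol (1 uM final, an EC50 level) for 5 h at 37 °C. CCF4 loading followed for 1 h at RT; 460/530 nm ratio gave %activity.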

[3] = Stat Signaling Pathway (AID 446); settings: ME-180 SIE beta-lactamase reporter, IL-6 stimulated, 5 h; at 38 µM (top of the series) unless noted;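 also: ME-180 cervical cancer cells given 40 pM IL-6 alongside compound; SIE-controlled beta-lactamase reporter measured as 460/530 nm FRET emission ratio; top concentration of the series differs between compounds; % is scaled to controls: 0 for no effect and ±100 for the full control effect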
In short: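 Overnight-plated ME-180 cells bearing a STAT Inducible Element beta-lactamase reporter; 5 h co-exposure to compound and 40 pM IL-6; values normalized to 300 pM IL-6 and 125 nM JAK inhibitor controls.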

[4] = target: 3',5'-cyclic-AMP phosphodiesterase 4B (Homo sapiens) (UniProt Q07343); experiment: qHTS Assay for Inhibitors of PDE-IV (AID 607; active = well fitted activation curve with a large enough effect in the main read-out, with a control signal flat, not every such curve was filed as active; inconclusive = small, poorly fitted or top-dose-only effect, or effect the other way, or a change in a side signal; also: potency is read from the fitted curve at half-maximal effect; as to activation (PDE inhibition): % of control where 0% means no effect); settings: HEK293 ACTOne CNG channel cells, membrane potential fluorescence; activation (PDE inhibition): at 22.9 µM (top of the series)
In short: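 Live HEK293 cells with a modified cyclic nucleotide-gated (CNG) channel report intracellular cAMP via membrane-potential dye fluorescence (ex 535/em 590 nm). Endogenous PDE-IV was targeted. Compounds were tested at up to 22.9 uM final; RO 20-1724 100 uM served as control.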

[5] = qHTS Assay for Identification of Small Molecule Antagonists for NFkB Signaling Pathway (AID 895; active = well fitted inhibition curve with a large enough effect in the signal ratio, with a control signal flat, not every such curve was filed as active; inconclusive = small, poorly fitted or top-dose-only effect, or effect the other way, or a change in a side signal; the % refers to the signal ratio; also: potency is read from the fitted curve at half-maximal effect); settings: NFkB beta-lactamase reporter cells, FRET ratio 460/530; activity change, negative = inhibition: at 38.3 µM (top of the series) unless noted
In short: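 NFkB-bla ME-180 cervical carcinoma cells with beta-lactamase reporter under NFkB response element; compounds added, then TNF alpha at 10 pM final (EC50), 5 h at 37 C. LiveBLAzer substrate 2 h, room temperature; emission 460/530 nm at 405 nm excitation.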

[6] = qHTS Assay for Identification of Small Molecule Agonists for Hypoxia Response Element Signaling Pathway (AID 914; active = well fitted activation curve with a large enough effect in the signal ratio, with a control signal flat, not every such curve was filed as active; inconclusive = small, poorly fitted or top-dose-only effect, or effect the other way, or a change in a side signal; the % refers to the signal ratio; also: potency is read from the fitted curve at half-maximal effect); settings: ME-180 (cervical carcinoma) HRE-bla reporter, beta-lactamase ratio, CoCl2, 17 h; activation: stronger effect = higher value
In short: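 HRE-bla ME-180 cells, overnight plating in Opti-MEM with 0.5% dialyzed FBS; cpd titration + EC50 CoCl2, 17 h, 37 degrees Celsius; CCF4 2.5 h RT; 460/530 nm ratio; AC50.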

[7] = qHTS Assay for Identification of Small Molecule Agonists for Thrombopoietin (TPO) Signaling Pathway (AID 917; active = well fitted curve in the direction sought with a large enough effect; inconclusive = small, poorly fitted or top-dose-only effect, or another doubt; inactive = no such curve, though single readings can be large; an effect the other way counts as inactive or inconclusive; also: potency is read from the fitted curve at half-maximal effect)
In short: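 Ba/F3 (mouse) + hTPO receptor + GpIIb-promoter luciferase; IL-3 withdrawn overnight; compound + 26 pM TPO (EC50), 24 hrs, 37 C, 5% CO2; Steadylite luminescence, 10 min RT.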

[8] = qHTS Assay for Identification of Small Molecule Antagonists for Thrombopoietin (TPO) Signaling Pathway (AID 918; active = well fitted curve in the direction sought with a large enough effect; inconclusive = small, poorly fitted or top-dose-only effect, or another doubt; inactive = no such curve, though single readings can be large; an effect the other way counts as inactive or inconclusive; also: potency is read from the fitted curve at half-maximal effect; nearly all actives have a fitted effect of over 60% in size); settings: TPO-dependent cell signaling reporter, antagonist mode; activity change, negative = inhibition: at 38.5 µM (top of the series)
In short: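 Antagonist mode at EC50 TPO (26 pM) in IL-3-free medium; murine Ba/F3 cells with human TPO receptor and GPIIb-promoter luciferase, 24 hrs at 37 C before luminescent detection.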

[9] = qHTS Assay for Identification of Small Molecule Agonists for NFkB Signaling Pathway (AID 928; calls by dose curve); settings: NFkB beta-lactamase reporter cells, blue/green ratio
In short: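 Activators were sought with TNF alpha co-added at 10 pM final (its EC50) to beta-lactamase reporter cells. Cells were plated in OPTI MEM with 0.5% FBS and exposed for 5 hrs at 37 C. The FRET substrate ratio was read at 460 and 530 nm.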

[10] = target: Cytochrome P450 3A4 (Homo sapiens) (UniProt P08684); experiment: qHTS Assay for Inhibitors and Substrates of Cytochrome P450 3A4 (AID 884; active = well fitted curve in the direction sought with a large enough effect; inconclusive = small, poorly fitted or top-dose-only effect, or another doubt; inactive = no such curve, though single readings can be large; an effect the other way counts as inactive or inconclusive; also: potency is read from the fitted curve at half-maximal effect; nearly all actives have a fitted effect of over 50% in size)
In short: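 Luminescent readout of luciferin produced by CYP3A4 (20 nM) dealkylation of Luciferin-PPXE, 25 uM (its KM). NADPH-driven reaction ran 60 min at RT after 10 min compound preincubation; data scaled to 57 uM ketoconazole as 100% inhibition.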

[11] = target: Cytochrome P450 2D6 (Homo sapiens) (UniProt P10635); experiment: qHTS Assay for Inhibitors and Substrates of Cytochrome P450 2D6 (AID 891; active = well fitted curve in the direction sought with a large enough effect; inconclusive = small, poorly fitted or top-dose-only effect, or another doubt; inactive = no such curve, though single readings can be large; an effect the other way counts as inactive or inconclusive;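 also: luciferin methyl ether substrate demethylated by CYP2D6 with NADPH regeneration; potency is read from the fitted curve at half-maximal effect; nearly all actives have a fitted effect of over 60% in size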)
In short: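 Luminescent read-out of luciferin formed by 5 nM human CYP2D6 demethylating 30 uM Luciferin-ME EGE (Km level) over 60 min at room temperature after NADPH regeneration addition. Data normalized to full inhibition by 1.43 uM quinidine.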

[12] = target: Cytochrome P450 2C19 (Homo sapiens) (UniProt P33261); experiment: qHTS Assay for Inhibitors and Substrates of Cytochrome P450 2C19 (AID 899; active = well fitted curve in the direction sought with a large enough effect; inconclusive = small, poorly fitted or top-dose-only effect, or another doubt; inactive = no such curve, though single readings can be large; an effect the other way counts as inactive or inconclusive; also: potency is read from the fitted curve at half-maximal effect; nearly all actives have a fitted effect of over 60% in size)
In short: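 Human CYP2C19 (5nM) with Luciferin-H EGE at 10uM (its KM) in 50mM KPO4 was preincubated with compound for 10 min at 37C. NADPH regeneration started a 60 min 37C reaction. Luciferin was read by luminescence, normalized to 57uM ketoconazole.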

[13] = target: Cytochrome P450 1A2 (Homo sapiens) (UniProt P05177); experiment: p450-cyp1a2 (AID 410; calls by dose curve; also: potency is read from the fitted curve at half-maximal effect;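 as to activity change, negative = inhibition: top concentration of the series differs between compounds; -100% = full effect of reference inhibitor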)
In short: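 Read-out is luminescence from luciferin produced by CYP1A2 demethylation of Luciferin-ME (100uM, at Km). Detection reagent stopped the 60 min NADPH-dependent reaction; signals were normalized to 57 uM furafylline.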

[14] = target: Mitogen-activated protein kinase 10 (Mus musculus) (UniProt Q61831); experiment: JNK3 AlphaScreen Assay (AID 530); settings: JNK3 lysate, c-Jun phosphorylation; activity change, negative = inhibition: at 57.1 µM (top of the series);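 also: kinase came from lysate of stimulated human HepG2 cells; signal reports phosphorylation of biotinylated GST-cJun 1-79 at Ser73 with 10 µM ATP; % is scaled to controls: 0 for no effect and ±100 for the full control effect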
In short: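 Biotinylated GST-cJun(1-79) served as substrate for JNK3 in HepG2 lysates stimulated with IL-1beta and TNF-alpha. ATP was 10 uM final, pH 7.6. Ser73 phosphorylation was quantified by AlphaScreen (680 nm excitation).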

[15] = target: Muscarinic acetylcholine receptor M1 (Rattus norvegicus) (UniProt P08482); experiment: qHTS Assay for Antagonists of Acetylcholine Muscarinic M1 Receptor: Kinetic Measurement of Intracellular Calcium Response (AID 943; active = well fitted curve in the direction sought with a large enough effect; inconclusive = small, poorly fitted or top-dose-only effect, or another doubt; inactive = no such curve, though single readings can be large; an effect the other way counts as inactive or inconclusive; also: potency is read from the fitted curve at half-maximal effect; nearly all actives have a fitted effect of over 75% in size)
In short: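 Quantitative HTS in CHO-M1 (rat receptor) cells: 10 min compound exposure ahead of 100 nM carbachol, Fluo-4 fluorescence followed 4 min, value expressed as peak-to-basal ratio.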

[16] = target: Muscarinic acetylcholine receptor M1 (Rattus norvegicus) (UniProt P08482); experiment: qHTS Assay for Antagonists of Acetylcholine Muscarinic M1 Receptor: Measurement of IP-One Response (AID 944; active = well fitted curve in the direction sought with a large enough effect; inconclusive = small, poorly fitted or top-dose-only effect, or another doubt; inactive = no such curve, though single readings can be large; an effect the other way counts as inactive or inconclusive; also: potency is read from the fitted curve at half-maximal effect; nearly all actives have a fitted effect of over 75% in size)
[17] = target: Tumor susceptibility gene 101 protein (Homo sapiens) (UniProt Q99816); experiment: qHTS Assay for Iinhibitors of HIV-1 Budding by Blocking the Interaction of PTAP/TSG101: Hit Validation (AID 651600; active = well fitted curve in the direction sought with a large enough effect; inconclusive = small, poorly fitted or top-dose-only effect, or another doubt; inactive = no such curve, though single readings can be large; an effect the other way counts as inactive or inconclusive; also: potency is read from the fitted curve at half-maximal effect; nearly all actives have a fitted effect of over 70% in size)
In short: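 Tsg101 binding domain 10 uM + FITC-PTAP peptide 50 nM (final), 10 mM HEPES pH 7.5/0.15 M NaCl/0.01% Tween 20/3 mM EDTA/0.1 mM TCEP; 20 min RT; FP read, FITC filters.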

[18] = qHTS screen for small molecules that inhibit ELG1-dependent DNA repair: Hit Confirmation with MMS Viability (AID 624251; active = well fitted curve in the direction sought with a large enough effect; inconclusive = small, poorly fitted or top-dose-only effect, or another doubt; inactive = no such curve, though single readings can be large; an effect the other way counts as inactive or inconclusive;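 also: ELG1-luc HEK293T cells co-treated with 10 µM MMS; potency is read from the fitted curve at half-maximal effect; viability read 16 h after compound addition; nearly all actives have a fitted effect of over 60% in size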); settings: Cell viability with MMS
In short: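 Sixteen hours of compound exposure with MMS at 10 µM final preceded a CellTiter-Glo viability readout in ELG1-luciferase HEK293T cells, which were dosed about 5 h after seeding.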

[19] = qHTS screen for small molecules that inhibit ELG1-dependent DNA repair: Hit Confirmation in Cell-Based Luciferin Assay (AID 624247; active = well fitted curve in the direction sought with a large enough effect; inconclusive = small, poorly fitted or top-dose-only effect, or another doubt; inactive = no such curve, though single readings can be large; an effect the other way counts as inactive or inconclusive; also: potency is read from the fitted curve at half-maximal effect); settings: cell-free firefly luciferase luminescence counter-screen, ViewLux
In short: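 Order of addition is substrate reagent → compound (or DMSO) → luciferase, with luminescence as readout.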

[20] = at 17.2 µM (top of the series) unless noted
Tags tell the direction and shape of the fitted curve or compound fluorescence and quenching.

UniProt P33261, sequence (P33261 whole entry, looked up): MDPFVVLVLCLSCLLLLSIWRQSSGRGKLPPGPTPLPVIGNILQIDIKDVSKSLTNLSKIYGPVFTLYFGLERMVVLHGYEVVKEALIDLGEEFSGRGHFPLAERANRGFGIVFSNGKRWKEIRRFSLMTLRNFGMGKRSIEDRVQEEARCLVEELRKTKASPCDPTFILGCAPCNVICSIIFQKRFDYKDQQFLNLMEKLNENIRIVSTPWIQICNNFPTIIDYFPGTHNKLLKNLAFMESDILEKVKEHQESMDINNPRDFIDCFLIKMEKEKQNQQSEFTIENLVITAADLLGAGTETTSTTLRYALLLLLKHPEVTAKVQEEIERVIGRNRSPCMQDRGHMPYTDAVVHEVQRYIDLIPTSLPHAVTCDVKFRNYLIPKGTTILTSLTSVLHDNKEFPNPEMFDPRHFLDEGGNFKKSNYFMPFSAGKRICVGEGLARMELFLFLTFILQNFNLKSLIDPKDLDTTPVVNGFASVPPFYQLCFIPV
UniProt Q07343, sequence (Q07343 whole entry, looked up): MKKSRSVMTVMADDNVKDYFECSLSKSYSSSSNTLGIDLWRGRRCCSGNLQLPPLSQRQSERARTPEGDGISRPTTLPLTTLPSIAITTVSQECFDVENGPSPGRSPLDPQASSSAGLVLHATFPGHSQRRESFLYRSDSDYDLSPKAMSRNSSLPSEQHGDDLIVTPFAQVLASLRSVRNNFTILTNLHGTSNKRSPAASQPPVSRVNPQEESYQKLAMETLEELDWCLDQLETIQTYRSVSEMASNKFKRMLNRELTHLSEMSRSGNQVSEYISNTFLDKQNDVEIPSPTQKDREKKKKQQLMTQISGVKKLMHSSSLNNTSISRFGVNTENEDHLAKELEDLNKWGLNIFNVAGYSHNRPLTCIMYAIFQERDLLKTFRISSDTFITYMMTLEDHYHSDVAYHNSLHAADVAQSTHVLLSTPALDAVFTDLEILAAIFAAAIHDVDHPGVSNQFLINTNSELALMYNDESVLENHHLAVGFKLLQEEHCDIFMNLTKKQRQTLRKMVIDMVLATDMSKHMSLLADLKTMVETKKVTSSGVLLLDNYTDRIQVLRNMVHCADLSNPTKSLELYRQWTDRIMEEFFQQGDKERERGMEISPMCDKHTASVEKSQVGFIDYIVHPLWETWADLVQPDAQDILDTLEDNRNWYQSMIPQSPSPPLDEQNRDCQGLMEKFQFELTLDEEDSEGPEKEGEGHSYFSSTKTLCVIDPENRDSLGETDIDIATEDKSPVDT
UniProt P05177, sequence (P05177 whole entry, looked up): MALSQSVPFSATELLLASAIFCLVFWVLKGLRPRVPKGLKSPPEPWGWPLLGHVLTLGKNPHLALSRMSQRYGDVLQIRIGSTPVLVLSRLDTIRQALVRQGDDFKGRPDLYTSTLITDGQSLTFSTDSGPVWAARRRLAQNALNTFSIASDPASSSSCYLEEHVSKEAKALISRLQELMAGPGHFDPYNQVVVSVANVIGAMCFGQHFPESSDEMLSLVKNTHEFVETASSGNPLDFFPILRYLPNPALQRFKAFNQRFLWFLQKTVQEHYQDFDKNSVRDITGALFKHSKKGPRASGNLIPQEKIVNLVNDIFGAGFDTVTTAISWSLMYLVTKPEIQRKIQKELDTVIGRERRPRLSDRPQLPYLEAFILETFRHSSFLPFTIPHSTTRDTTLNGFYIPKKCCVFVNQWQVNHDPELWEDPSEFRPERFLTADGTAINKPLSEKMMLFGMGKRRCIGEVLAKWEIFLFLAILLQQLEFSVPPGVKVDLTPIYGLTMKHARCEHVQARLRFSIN
UniProt P08482, sequence (P08482 whole entry, looked up): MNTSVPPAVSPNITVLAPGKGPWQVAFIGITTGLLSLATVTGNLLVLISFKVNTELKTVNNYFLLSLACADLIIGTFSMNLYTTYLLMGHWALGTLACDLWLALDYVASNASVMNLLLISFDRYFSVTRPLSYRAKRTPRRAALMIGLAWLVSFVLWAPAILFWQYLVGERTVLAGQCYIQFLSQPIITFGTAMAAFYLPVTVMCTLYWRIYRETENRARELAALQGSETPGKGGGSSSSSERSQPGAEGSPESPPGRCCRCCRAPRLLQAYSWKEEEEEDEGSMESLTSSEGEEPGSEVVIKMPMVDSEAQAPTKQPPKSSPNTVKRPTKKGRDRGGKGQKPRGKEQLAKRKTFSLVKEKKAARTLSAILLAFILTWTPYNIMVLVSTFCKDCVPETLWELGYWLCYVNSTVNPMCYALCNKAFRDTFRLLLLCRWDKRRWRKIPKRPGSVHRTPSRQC
UniProt P10635, sequence (P10635 whole entry, looked up): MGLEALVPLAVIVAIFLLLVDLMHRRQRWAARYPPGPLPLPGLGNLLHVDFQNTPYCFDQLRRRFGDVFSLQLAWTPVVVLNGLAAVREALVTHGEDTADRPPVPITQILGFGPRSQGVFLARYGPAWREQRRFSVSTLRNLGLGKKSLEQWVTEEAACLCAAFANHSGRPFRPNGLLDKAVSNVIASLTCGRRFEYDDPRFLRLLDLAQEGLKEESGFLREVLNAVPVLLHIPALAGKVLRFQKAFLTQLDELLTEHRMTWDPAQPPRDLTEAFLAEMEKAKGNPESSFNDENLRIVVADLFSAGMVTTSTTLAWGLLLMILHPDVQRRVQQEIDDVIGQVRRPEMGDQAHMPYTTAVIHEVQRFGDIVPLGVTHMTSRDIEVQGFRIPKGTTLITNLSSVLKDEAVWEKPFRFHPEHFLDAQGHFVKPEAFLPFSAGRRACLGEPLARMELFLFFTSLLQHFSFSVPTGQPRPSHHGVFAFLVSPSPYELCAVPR
UniProt Q99816, sequence (Q99816 whole entry, looked up, the tested form may be a part): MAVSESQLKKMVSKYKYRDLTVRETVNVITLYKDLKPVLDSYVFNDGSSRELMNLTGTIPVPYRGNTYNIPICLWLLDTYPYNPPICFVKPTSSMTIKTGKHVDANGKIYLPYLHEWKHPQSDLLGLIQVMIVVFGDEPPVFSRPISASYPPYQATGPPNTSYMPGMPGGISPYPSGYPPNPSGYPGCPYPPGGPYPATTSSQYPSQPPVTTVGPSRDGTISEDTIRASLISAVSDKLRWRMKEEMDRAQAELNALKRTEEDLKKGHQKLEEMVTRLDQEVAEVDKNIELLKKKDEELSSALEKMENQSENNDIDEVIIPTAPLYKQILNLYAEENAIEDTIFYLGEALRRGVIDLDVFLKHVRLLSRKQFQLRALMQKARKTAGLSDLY
UniProt P08684, sequence (P08684 whole entry, looked up): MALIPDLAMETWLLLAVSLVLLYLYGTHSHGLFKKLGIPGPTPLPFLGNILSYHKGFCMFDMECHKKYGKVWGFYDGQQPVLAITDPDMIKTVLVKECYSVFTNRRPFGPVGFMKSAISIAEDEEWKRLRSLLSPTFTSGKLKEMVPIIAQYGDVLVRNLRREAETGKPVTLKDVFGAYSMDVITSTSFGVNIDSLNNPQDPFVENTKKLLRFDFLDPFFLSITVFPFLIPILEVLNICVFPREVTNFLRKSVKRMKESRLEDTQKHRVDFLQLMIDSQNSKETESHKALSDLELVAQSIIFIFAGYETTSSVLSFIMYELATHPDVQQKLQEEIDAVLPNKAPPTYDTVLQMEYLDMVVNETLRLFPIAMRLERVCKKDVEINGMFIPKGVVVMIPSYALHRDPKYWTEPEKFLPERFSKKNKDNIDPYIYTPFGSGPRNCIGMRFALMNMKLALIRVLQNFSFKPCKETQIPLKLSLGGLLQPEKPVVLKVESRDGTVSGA

C[C@]1(C(=O)O)[C@@H]2CC[C@@H](O2)[C@@]1(C)C(=O)O
activity change, negative = inhibition [1, 20]: active: -103% [at 38 µM] | activity change, negative = inhibition [2]: inconclusive: -103% [inhibitor] [at 38 µM] | activity, negative = inhibition [3]: inconclusive: -23.3% [inhibitor] | Potency [4]: inactive | Potency [5]: active: 6.31 µM | Potency [6]: inconclusive: 12.6 µM [cytotoxic, side channel, partial curve] | Potency [7]: inconclusive: 5.01 µM [inhibitor, partial curve] | Potency [8]: active: 5.01 µM | Potency [9]: inconclusive: 6.31 µM [inhibitor, partial curve]

CSC([N-]/N=C/c1cccc(C)n1)=[S]=[Cu].CS[C@H]([S-])[N-]/N=C/c1cccc(C)n1
activity change, negative = inhibition [1, 20]: inconclusive: -117% [inhibitor] [at 7.69 µM] | activity change, negative = inhibition [2]: active: -102% | activity, negative = inhibition [3]: inconclusive: -101% [inhibitor] [at 7.69 µM] | Potency [10]: active: 3.98 µM | Potency [11]: inconclusive: 3.16 µM [inhibitor, partial curve] | Potency [12]: active: 0.199 µM

c1ccc2c(c1)OC[C@@H](C1=NCCN1)O2
activity change, negative = inhibition ([1]; at 17.2 µM (top of the series)): inconclusive: -14.2% [inhibitor] | activity change, negative = inhibition ([1]; at 38 µM (top of the series)): inconclusive: -43.4% [inhibitor] | Potency [13]: inactive and inconclusive: 31.6 µM [decreasing] | Potency [12]: active: 7.94 µM | Potency [7]: inconclusive: 12.6 µM [inhibitor, partial curve]

c1cncc(CNCCN2CCNCC2)c1
activity change, negative = inhibition [1, 20]: inactive: 5.14% [at 7.69 µM] | activity change, negative = inhibition [13]: inactive: 6.1% [at 11.4 µM] | activity change, negative = inhibition [2]: inconclusive: -31.9% [inhibitor] | activity, negative = inhibition [3]: inconclusive: 7.71% [inhibitor] [at 7.69 µM]

CC[C@H]1CN2CCc3cc(OC)c(OC)cc3[C@H]2C[C@@H]1C[C@H]1NCCc2c1[nH]c1ccc(O)cc21
activity change, negative = inhibition [1, 20]: active: -118% [at 7.69 µM] | activity change, negative = inhibition [2]: active: -128% | activity change, negative = inhibition [14]: inactive: -2.73% [at 11.4 µM] | Potency [11]: inconclusive: 3.98 µM [inhibitor, single point]

CCn1cnc2c(Nc3cccc(Cl)c3)nc(N[C@@H]3CCCC[C@H]3N)nc21
activity change, negative = inhibition [1, 20]: active: -111% [at 38 µM] | activity change, negative = inhibition [2]: active: -119% [at 38 µM] | activity, negative = inhibition [3]: active: -30.2% | Potency [5]: inconclusive: 2 µM [side channel, rising, partial curve, poor fit] [stimulated with 10 pM TNF alpha] | Potency [7]: inconclusive: 2.51 µM [inhibitor, full curve] [stimulated with TPO at its EC50] | Potency [8]: active: 2.51 µM | Potency [15]: inconclusive: 22.4 µM [inhibitor, single point] | Potency [16]: inconclusive: 35.5 µM [inhibitor, single point]

O=C(Oc1ccccc1)N1CCC2(CC1)CCN(C(c1ccccc1)c1ccccc1)CC2
activity change, negative = inhibition [1, 20]: inactive: 0.222% [at 7.69 µM] | activity change, negative = inhibition [2]: inactive: -0.91% | Potency [4]: inconclusive: 15.8 µM [activator, partial curve]

CCOc1ccc(-n2c(O)c(C=Nc3ccc(N(CC)CC)cc3)c(=O)[nH]c2=O)cc1
activity change, negative = inhibition [1, 20]: inconclusive: -33.3% [inhibitor] | activity change, negative = inhibition [2]: inconclusive: -73.6% [inhibitor] [at 17.2 µM] | activity, negative = inhibition [3]: inactive: -22.4% [at 17.2 µM] | Potency [17]: inconclusive: 23.1 µM [inhibitor, partial curve, poor fit]

C[C@@]12CC[C@H]3[C@@H](CC[C@]4(O)C[C@H](O)CC[C@@]34C=O)[C@]1(O)CC[C@@H]2C1=CC(=O)OC1
activity change, negative = inhibition [1, 20]: inconclusive: -50.4% [inhibitor] | activity change, negative = inhibition [2]: inconclusive: -64.4% [inhibitor] [at 17.2 µM] | Potency [4]: inconclusive: 4.77 µM [activator, partial curve] | Potency [18]: active: 1.07 µM

C[C@@H]1O[C@H](O[C@@H]2CC[C@@]3(C=O)[C@H]4CC[C@@]5(C)[C@@H](C6=CC(=O)OC6)CC[C@@]5(O)[C@@H]4CC[C@]3(O)C2)C[C@H](O)[C@@H]1O
activity change, negative = inhibition [1, 20]: inconclusive: -39.4% [inhibitor] | Potency [13]: inactive | activity change, negative = inhibition [2]: inconclusive: -68.8% [inhibitor] [at 17.2 µM]

C[C@@H]1O[C@H](O[C@H]2C[C@@H](O)[C@@]3(CO)[C@H]4[C@@H](O)C[C@]5(C)[C@@H](C6=CC(=O)OC6)CC[C@]5(O)[C@H]4CC[C@]3(O)C2)[C@@H](O)[C@H](O)[C@@H]1O
activity change, negative = inhibition [1, 20]: inconclusive: -57.8% [inhibitor] | activity change, negative = inhibition [2]: active: -76.3% [at 17.2 µM] | activity, negative = inhibition [3]: inconclusive: -32.3% [inhibitor] [at 17.2 µM] | Potency [4]: inconclusive: 3.01 µM [rising, partial curve] | Potency [19]: inconclusive: 0.19 µM [inhibitor, full curve]

Cn1c(O)c(C(=O)c2ccccc2Cl)c(=O)n(C)c1=O
activity change, negative = inhibition [1, 20]: inconclusive: 6.82% [activator]

COC1=C(C)C(=O)c2c(c(COC(N)=O)c3n2C[C@@H]2[C@@H]3N2C)C1=O (stereo partly specified)
activity change, negative = inhibition [1, 20]: inconclusive: -110% [inhibitor] [at 7.69 µM] | Potency [13]: inconclusive: 1.58 µM [decreasing] | activity change, negative = inhibition [2]: inconclusive: -121% [inhibitor] | activity, negative = inhibition [3]: inconclusive: -93.6% [inhibitor] [at 7.69 µM] | Potency [12]: inconclusive: 0.794 µM [inhibitor, full curve]

Reference: PubChem BioAssay (NCATS)
